Measured values taken from patent US5338725A, “Anti-aggregatory agents for platelets” (The Research Foundation of the State University of New York, priority 1992, dated 1994).
At least one peptide structure holds a part that was inferred or is arguable (an end, a ring closure or a residue). Starred links: 1 amine or outer side, 2 acyl side, 3 side chain; linkers in the order of their positions; H or OH if unused. Positions of bridges follow the written chain, without caps; N, C: chain ends. Non-standard residues stand in square brackets, D forms with d. Residues, ends and D or L forms follow the SMILES beside them. Chains are numbered I, II in the order given. *: point of attachment. Terephthaloyl = O=C(c1ccc(C(=O)[*:2])cc1)[*:1]; Suc = O=C(CCC(=O)[*:2])[*:1]; 3Abz = Nc1cccc(C(=O)O)c1; 4Abz = Nc1ccc(C(=O)O)cc1; 2Abz = Nc1ccccc1C(=O)O; Hexanoyl = CCCCCC(=O)*

target: human platelet-rich plasma (Homo sapiens, UniProt P05106+P08514); assay: In vitro inhibition of ADP-induced aggregation of human platelet-rich plasma (Coller assay); type: cell-based; conditions: adjusted for fibrinogen concentration (ca. 30 times lower than Coller assay value; 0.1 mg/mL fibrinogen)
Method: 1. In vitro Inhibition of Aggregation of Human Platelet-Rich Plasma
Whole blood (10 ml) was collected from human volunteers and anticoagulated by addition of […] of 40% sodium citrate. Platelet-rich plasma (PRP) was prepared by low speed centrifugation (700 G for 3.5 min at 22° C.). The PRP was removed and the remaining blood was centrifuged at 2000 G for 10 min at 22 ° C. to obtain platelet poor plasma (PPP). The PRP was diluted with PPP to give a final platelet count of 300 000μL with a Coulter Acounter Model ZM (Coulter, Hialeah, Fla.). This diluted PRP (400μL) was placed in a siliconized glass cuvette equipped with a magnetic stirrer and stirred at 1200 rpm at 37° C. Various concentrations of the peptides (36μL) in TRIS buffer (0.01 M TRIS, 0.15 M NaCl, and 0.05% sodium azide, pH 7.4) was added and incubated for 3 rain before platelet aggregation was induced by addition of 54μL of 100μM ADP in HEPES buffer (0.01 M HEPES and 0.15 M NaCl, pH 7.5). The platelet aggregation was determined by a change in light transmission through the PRP on a Lumi Aggregometer 400rS (ChronoLog, Hayertown, PA). The ability of the peptides to inhibit platelet aggregation was evaluated and the IC50 was determined as the concentration of peptide required to produce 50% inhibition of the response to ADP in the presence of the TRIS buffer.
The assay system developed by Coller, which is used throughout the experiment, is different from conventional assay systems in certain aspects. First, the platelets used by Plow et al., Blood, 70, 110 (1987); and Garsky et al., Proc. Natl. Acad. Sci. U.S.A., 86, 4022 (1989) are gel-filtered to remove plasma proteins. Since the gel-filtration treatment may decrease the reactivity of the platelets, our assay avoids this step. The platelet count is adjusted by simply mixing PRP and PPP, which minimizes alterations of the platelets. Second, fibrinogen concentration in the Coller system is different from that of others. As shown in the experimental description of the assay, PRP was obtained from fresh blood and used immediately without further manipulation except for count adjustment. According to measurements obtained using this assay, such plasma contains ca. 3 mg of fibrinogen per 1 mL of plasma. On the other hand, fibrinogen concentration used in the Garsky and Plow assay system is 0.1 mg/mL. The concentration of fibrinogen affects the amount of RGD peptide required to inhibit platelet aggregation, with higher fibrinogen concentrations resulting in higher IC50 values. If there is a linear relationship between these two parameters, the IC50 values obtained from the Coller assay should be ca. 30 times larger than those obtained from the Plow et al. assay or the Garsky et al. assay. The adjusted IC50 values are presented in column 4 of Table showing the inhibitory activities of RGD peptides.
The following peptides were synthesized, and their amino acid contents were analyzed as described in procedures 3-7, above. In addition, their ability to inhibit aggregation of human platelet rich plasma was assessed as described in procedures 1 and 2, above. Their respective IC50 values, as well as their estimated IC50 adjusted to the values according the method of Plow et al., (vide supra) are listed in Table 1.

human platelet-rich plasma, sequence (P08514 32-1039): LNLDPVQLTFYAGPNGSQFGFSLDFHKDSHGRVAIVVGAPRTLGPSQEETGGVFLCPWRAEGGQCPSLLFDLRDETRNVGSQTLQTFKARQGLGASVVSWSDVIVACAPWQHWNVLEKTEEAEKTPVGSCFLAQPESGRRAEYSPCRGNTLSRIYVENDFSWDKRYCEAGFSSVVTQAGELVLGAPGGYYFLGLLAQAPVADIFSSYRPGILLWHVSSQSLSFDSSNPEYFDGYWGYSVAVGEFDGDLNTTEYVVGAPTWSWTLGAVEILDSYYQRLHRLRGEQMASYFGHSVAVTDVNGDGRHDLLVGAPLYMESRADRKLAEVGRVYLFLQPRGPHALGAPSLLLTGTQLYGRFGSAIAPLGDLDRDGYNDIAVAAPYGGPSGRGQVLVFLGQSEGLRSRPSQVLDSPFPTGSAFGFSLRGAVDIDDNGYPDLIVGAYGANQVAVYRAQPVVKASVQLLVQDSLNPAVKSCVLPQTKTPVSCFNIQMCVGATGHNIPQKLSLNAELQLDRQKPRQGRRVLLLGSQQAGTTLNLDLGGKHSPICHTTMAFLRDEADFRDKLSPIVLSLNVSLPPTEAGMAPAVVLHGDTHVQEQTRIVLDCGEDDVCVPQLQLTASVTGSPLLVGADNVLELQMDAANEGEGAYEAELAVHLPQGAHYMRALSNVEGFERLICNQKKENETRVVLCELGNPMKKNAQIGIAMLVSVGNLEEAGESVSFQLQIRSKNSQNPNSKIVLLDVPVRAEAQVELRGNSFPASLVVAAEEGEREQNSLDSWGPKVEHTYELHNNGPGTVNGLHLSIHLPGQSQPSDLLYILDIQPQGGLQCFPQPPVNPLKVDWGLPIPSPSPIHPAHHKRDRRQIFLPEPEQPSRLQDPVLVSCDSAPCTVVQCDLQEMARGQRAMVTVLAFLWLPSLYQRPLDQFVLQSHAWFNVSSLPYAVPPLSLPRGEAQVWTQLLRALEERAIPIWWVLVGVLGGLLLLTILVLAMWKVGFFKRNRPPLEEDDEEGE
human platelet-rich plasma, sequence (P05106 27-788): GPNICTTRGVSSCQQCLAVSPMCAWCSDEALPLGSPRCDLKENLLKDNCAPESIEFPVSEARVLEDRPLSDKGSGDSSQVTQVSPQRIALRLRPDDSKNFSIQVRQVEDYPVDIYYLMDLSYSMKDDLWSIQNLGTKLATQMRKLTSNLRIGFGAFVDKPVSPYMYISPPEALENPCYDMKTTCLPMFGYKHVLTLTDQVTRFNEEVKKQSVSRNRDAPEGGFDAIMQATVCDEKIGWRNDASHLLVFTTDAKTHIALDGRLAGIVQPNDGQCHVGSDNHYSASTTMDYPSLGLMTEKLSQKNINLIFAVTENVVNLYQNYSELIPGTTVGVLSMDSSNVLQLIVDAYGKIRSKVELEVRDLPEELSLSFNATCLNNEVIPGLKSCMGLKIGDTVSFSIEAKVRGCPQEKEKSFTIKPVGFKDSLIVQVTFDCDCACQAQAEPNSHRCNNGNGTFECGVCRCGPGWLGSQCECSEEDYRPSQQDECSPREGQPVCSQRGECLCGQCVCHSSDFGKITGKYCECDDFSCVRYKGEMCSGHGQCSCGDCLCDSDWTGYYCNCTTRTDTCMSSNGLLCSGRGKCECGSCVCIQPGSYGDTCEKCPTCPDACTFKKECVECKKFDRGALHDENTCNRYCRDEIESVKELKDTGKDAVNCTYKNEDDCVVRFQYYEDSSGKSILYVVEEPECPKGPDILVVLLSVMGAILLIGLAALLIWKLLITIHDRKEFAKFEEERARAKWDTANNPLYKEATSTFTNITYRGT

Row | Structure (SMILES) | IC50 (M)* Estimated IC50 adjusted to the values by the method of Plow et al.
1 | N=C(N)NCCC[C@H](NC(=O)CN)C(=O)NCC(=O)N[C@@H](CC(=O)O)C(=O)N[C@@H](Cc1ccccc1)C(=O)NCCCC[C@H](NC(=O)[C@H](Cc1ccccc1)NC(=O)[C@H](CC(=O)O)NC(=O)CNC(=O)[C@H](CCCNC(=N)N)NC(=O)CN)C(N)=O [Example 4, (GRGDF)2 Lys--NH2] | 3.5e-06 M
2 | N=C(N)NCCC[C@H](N)C(=O)NCC(=O)N[C@@H](CC(=O)O)C(=O)N[C@@H](Cc1ccccc1)C(=O)NC1CC(NC(=O)[C@H](Cc2ccccc2)NC(=O)[C@H](CC(=O)O)NC(=O)CNC(=O)[C@@H](N)CCCNC(=N)N)CC(C(N)=O)C1 (stereo partly shown) [Example 6, (RGDF)2 Dac--NH2] | 1.7e-06 M
3 | CCCCCC(=O)N[C@@H](CCCNC(=N)N)C(=O)NCC(=O)N[C@@H](CC(=O)O)C(=O)N[C@@H](Cc1ccccc1)C(=O)N1CCC[C@H]1C(=O)NCCCC[C@H](NC(=O)[C@@H]1CCCN1C(=O)[C@H](Cc1ccccc1)NC(=O)[C@H](CC(=O)O)NC(=O)CNC(=O)[C@H](CCCNC(=N)N)NC(=O)CCCCC)C(N)=O [Example 10, (HexRGDFP)2 Lys--NH2] (I: Hexanoyl-RGDFPK-NH2 / II: Hexanoyl-RGDFP; amide I:6-II:C) | 9e-08 M
4 | N=C(N)NCCC[C@H](NC(=O)c1ccc(C(=O)N[C@@H](CCCNC(=N)N)C(=O)NCC(=O)N[C@@H](CC(=O)O)C(=O)N[C@@H](Cc2ccccc2)C(=O)O)cc1)C(=O)NCC(=O)N[C@@H](CC(=O)O)C(=O)N[C@@H](Cc1ccccc1)C(=O)O [Example 11, (p)Pht(RGDF--OH)2] (I: RGDF-OH / II: RGDF-OH; linker I:N-II:N via Terephthaloyl) | 4.2e-07 M
5 | N=C(N)NCCC[C@H](NC(=O)CCC(=O)N[C@@H](CCCNC(=N)N)C(=O)NCC(=O)N[C@@H](CC(=O)O)C(=O)N[C@@H](Cc1ccccc1)C(=O)O)C(=O)NCC(=O)N[C@@H](CC(=O)O)C(=O)N[C@@H](Cc1ccccc1)C(=O)O [Example 12, Suc(RGDF--OH)2] (I: RGDF-OH / II: RGDF-OH; linker I:N-II:N via Suc) | 5e-07 M
6 | N=C(N)NCCC[C@H](NC(=O)CN)C(=O)NCC(=O)N[C@@H](CC(=O)O)C(=O)N[C@@H](Cc1ccccc1)C(=O)NCC(=O)Nc1cccc(C(=O)NCC(=O)N[C@@H](CCCNC(=N)N)C(=O)NCC(=O)N[C@@H](CC(=O)O)C(=O)N[C@@H](Cc2ccccc2)C(=O)O)c1 [Example 20, GRGDFG--(m)Abz--GRGDF--OH] (H-GRGDFG[3Abz]GRGDF-OH) | 6.2e-07 M
7 | N=C(N)NCCC[C@H](NC(=O)CN)C(=O)NCC(=O)N[C@@H](CC(=O)O)C(=O)N[C@@H](Cc1ccccc1)C(=O)NCC(=O)Nc1cccc(C(=O)NCC(=O)N[C@@H](CCCNC(=N)N)C(=O)NCC(=O)N[C@@H](CC(=O)O)C(=O)N[C@@H](Cc2ccccc2)C(N)=O)c1 [Example 23, GRGDFG--(m)Abz--GRGDF--NH2] (H-GRGDFG[3Abz]GRGDF-NH2) | 1.7e-06 M
8 | N=C(N)NCCC[C@H](NC(=O)CN)C(=O)NCC(=O)N[C@@H](CC(=O)O)C(=O)N[C@@H](CO)C(=O)NCC(=O)Nc1ccccc1C(=O)NCC(=O)N[C@@H](CCCNC(=N)N)C(=O)NCC(=O)N[C@@H](CC(=O)O)C(=O)N[C@@H](Cc1ccccc1)C(N)=O [Example 25, GRGDSG--(o)Abz--GRGDF--NH2] (H-GRGDSG[2Abz]GRGDF-NH2) | 2.1e-06 M
9 | CC(C)[C@H](NC(=O)[C@H](CC(=O)O)NC(=O)CNC(=O)[C@H](CCCNC(=N)N)NC(=O)CN)C(=O)NCC(=O)Nc1ccc(C(=O)NCC(=O)N[C@@H](CCCNC(=N)N)C(=O)NCC(=O)N[C@@H](CC(=O)O)C(=O)N[C@@H](Cc2ccccc2)C(N)=O)cc1 [Example 30, GRGDVG--(p)Abz--GRGDF--NH2] (H-GRGDVG[4Abz]GRGDF-NH2) | 8.5e-07 M

same assay, conditions: even at a concentration of 1×10^-3 M

Row | Structure (SMILES) | inhibitory activity (platelet aggregation)
10 | N=C(N)NCCC[C@H](NC(=O)CN)C(=O)NCC(=O)N[C@@H](CC(=O)O)C(=O)N[C@@H](Cc1ccccc1)C(=O)NCCCC[C@H](NC(=O)[C@H](Cc1ccccc1)NC(=O)[C@H](CC(=O)O)NC(=O)CNC(=O)[C@H](CCCNC(=N)N)NC(=O)CN)C(=O)NCCCC[C@H](NC(=O)[C@H](CCCCNC(=O)[C@H](Cc1ccccc1)NC(=O)[C@H](CC(=O)O)NC(=O)CNC(=O)[C@H](CCCNC(=N)N)NC(=O)CN)NC(=O)[C@H](Cc1ccccc1)NC(=O)[C@H](CC(=O)O)NC(=O)CNC(=O)[C@H](CCCNC(=N)N)NC(=O)CN)C(N)=O [[(GRGDF)2 K]2 K--NH2] | does not show any inhibitory activity
